Screen size: about 350,000 compounds; about 9,900 (2.8%) were called active. Inconclusive means that the source gave no clear call. Such entries were picked first, then a sample of the others. The call rests on the fitted dose curve; in most records, active means well fitted activation curve with a large enough effect; inconclusive means small, poorly fitted or top-dose-only effect; inactive means no such curve, though single readings can be large or run the other way. Potencies of inconclusive entries are left out as doubtful fits.
assay: A quantitative high throughput screen for small molecules that induce DNA re-replication in MCF 10a normal breast cells.; further: nearly all actives have a fitted effect of over 50% in size; on activity, positive = re-replication: % of control where 0% means no effect; conditions: MCF 10A DNA re-replication, Hoechst nuclear intensity, 48 h; activity, positive = re-replication: at 46.1 µM (top of the series)
Potency means the concentration at half of the fitted maximal effect; tags describe the fitted curve by direction and shape.

Compound	Potency	activity, positive = re-replication
Cc1ccc2nc(N3CCN(C(=O)c4ccccc4F)CC3)c(C#N)cc2c1	active: 11.6 µM	
Nc1nc(NCc2ccc(Cl)cc2)nc(NCCO)c1[N+](=O)[O-]	inconclusive [activator, single point]	
Cc1ccc(S(=O)(=O)Oc2ccccc2/C=C2/SC(=O)NC2=O)cc1	inconclusive [activator, single point]	
COc1ccc(NC(=O)CN(C)C(=O)Cc2c[nH]c3ccccc23)cc1	inconclusive [activator, full curve, poor fit]	
CC1C/C(=N/Nc2nc3ccccc3[nH]2)CC(C)(C)C1 (stereo unspecified)	inconclusive [activator, single point]	
O=C(CC1OCC2CCCN2C1=O)Nc1ccc([N+](=O)[O-])cc1 (stereo unspecified)	inconclusive [activator, single point]	
CCn1c(SCC(=O)N2CCN(c3ccccc3)CC2)nnc1-c1ccoc1C	inconclusive [activator, partial curve, poor fit]	
COc1cccc(OC(=O)c2ccccc2)c1OC(=O)c1ccccc1	inconclusive [activator, single point]	
ClCc1csc(-c2ccc(Cl)cc2)n1	inconclusive [activator, single point]	
CC1CCCN(S(=O)(=O)c2ccc(NC(=O)CN3CCN(C)CC3)cc2)C1 (stereo unspecified)	inconclusive [activator, partial curve, poor fit]	
Cc1cccc(C)c1Nc1nnc(SCC(=O)Nc2sccc2C#N)s1	inconclusive [activator, partial curve, poor fit]	
Cc1cc(C)cc(NC(=O)c2ccc(CN3CCc4ccccc4C3)cc2)c1	active: 20.6 µM	
O=C(Nc1ccc2nc(-c3ccco3)c(-c3ccco3)nc2c1)N1CCCCCC1	active: 18.4 µM	
CCN1C(=O)c2ccccc2Sc2ccc(C(=O)NCCCN3CCOCC3)cc21	inconclusive [activator, full curve]	
N#CCc1ccccc1C(=O)OCC(=O)N(Cc1ccccc1)Cc1ccccc1		inactive: -1.13%
CC(NC(=O)CSc1ncccn1)c1ccc(Cl)cc1Cl (stereo unspecified)		inactive: -3.35%
Cn1c(C23CC4CC(CC(C4)C2)C3)n[nH]c1=S		inactive: 1.6%
COc1c(C(=O)Nc2ccc(Cc3ccncc3)cc2)ccc2ccccc12	active: 23.1 µM	
C=CCNC(=O)c1onc(CSc2ccccc2)c1C(=O)O	inconclusive [activator, partial curve, poor fit]	
CN(Cc1ccccc1)C(=O)c1ccc(NC(=O)Cc2cccc(NC(=O)C3CCN(C(=O)C4CCC4)CC3)c2)cc1	inconclusive [activator, single point]	
NC(=O)Cn1c(=O)n(C2CCCCC2)c(=O)c2c3c(sc21)CCCCC3	inconclusive [activator, single point]	
COc1ccc(C=O)cc1COc1ccc2c(c1)OCO2	inconclusive [activator, single point]	
CN(CC(=O)Nc1ccccc1Br)C(=O)c1cc2c(s1)CCCCC2	inconclusive [activator, single point]	

Compound	Potency	activity, positive = re-replication
COc1cc(OC)c2c(-c3cccc(-c4ccoc4)c3)cc(=O)oc2c1	active: 7.31 µM	
N#C/C(=C\c1c(F)cccc1Cl)C(=O)NC1CC1	inconclusive [activator, single point]	
COc1cccc(-c2ccc(C#N)c(SCC(=O)NCCc3cccc(Cl)c3)n2)c1	inconclusive [activator, full curve]	
CCN(Cc1ccc2c(c1)OCCO2)C(=O)CN1C(=O)NC2(CCCCC2)C1=O		inactive: -2.26%
O=C(O)CCCC(=O)Nc1ccc(-n2ccc(C(F)(F)F)n2)cc1		inactive: -0.107%
Nc1cccc(Oc2cnccn2)c1		inactive: -2.85%
Cc1c(NC2=C(Cl)C(=O)N(c3ccccc3)C2=O)c(=O)n(-c2ccccc2)n1C	inconclusive [activator, single point]	
CCOC(=O)C1=C(CCc2ccccc2)NC(=O)NC1c1ccc2ccccc2c1 (stereo unspecified)	inconclusive [activator, partial curve, poor fit]	
CCOc1cc2c3c(c1)C(C)=CC(C)(C)N3C(=O)C2=O	inconclusive [activator, full curve]	
NC(N)=NCCN1CCCCCCC1		inactive: -6.26% [at 20.6 µM]
COc1ccc(CN2CCN(Cc3ccccc3F)CC2)c(OC)c1		inactive: -1.65%
Cc1ccccc1C(=O)N1CCC(C(=O)Nc2ccccc2N2CCCC2)CC1		inactive: -1.67%
O=C(COC(=O)c1cccc(Cl)c1Cl)NC1CCCC1		inactive: -12.9%
c1cnc(N2CCN(Cc3c[nH]c4ccccc34)CC2)nc1		inactive: 13.3%
Cc1cccc(C)c1N(CC(=O)N1CCN(c2ccccc2F)CC1)S(C)(=O)=O	active: 0.651 µM	
CN(C)S(=O)(=O)c1cccc(-c2nn(-c3ccccc3)cc2/C=C(\C#N)c2nc3ccccc3[nH]2)c1	active: 3.26 µM	
CC(C)OC(=O)CN1C(=O)C(=O)c2ccccc21	active: 23.1 µM	
O=C1C2C3c4ccccc4C(c4ccccc43)C2C(=O)N1c1ccncc1 (stereo unspecified)	inconclusive [activator, partial curve, poor fit]	
COC(=O)c1ccccc1NC(=O)c1cn(-c2ccc(C)c(C)c2)c(=O)c2ccccc12	inconclusive [activator, single point]	
O=[N+]([O-])c1ccc(NC(c2ccccc2)c2ccc3cccnc3c2O)cc1 (stereo unspecified)	inconclusive [activator, partial curve]	
CC(C)CC(=O)Nc1cccc(NC(=O)c2ccccc2Cl)c1	inconclusive [activator, partial curve, poor fit]	
O=C(NC1CCCC1)C1CCC(=O)N1CCc1ccccc1 (stereo unspecified)	inconclusive [activator, partial curve, poor fit]	
COc1cc(OC)c(N(C)S(=O)(=O)c2cccc(C(=O)NC(C)C3CC4CCC3C4)c2)cc1Cl (stereo unspecified)	inconclusive [activator, partial curve, poor fit]	

— PubChem BioAssay AID624296 (National Center for Advancing Translational Sciences (NCATS), 2012)
